# Reference: the supplement of paper PMC6609913
# Counter-ions that a name gives are not always drawn. ± gives the standard deviation of the averaged measurements. Whole data set: some 1,300 compounds, median “normalised cell viability” near 1, cut for the lowest 2% near 0.14. Some of the results follow.
# System: V-C8 (BRCA2-deficient hamster cells)
# Experiment: normalised cell viability (fraction of plate median); higher = more viable cells (less toxic)
# Details: 5 µM
# Procedure, shortened: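 Hamster V-C8 cells lacking BRCA2 and V-C8 cells with BRCA2 restored were seeded in 96-well plates. Library drugs (10 mM DMSO stocks) were added 24 h later at 5 μM in 100 μl medium, next to DMSO control wells, for 3 days (screen 1) or 6 days (screen 2). Cell viability was read by resazurin assay, median-plate normalised (modified robust per cent of sample), and triplicate wells were averaged.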
SMILES,normalised cell viability (treatment time: 3 days),normalised cell viability (treatment time: 6 days)
CNCC[C@@H](Oc1cccc2ccccc12)c1cccs1 [(R)-Duloxetine hydrochloride],0.908 ± 0.057,0.883 ± 0.092
CC(CCc1ccc(O)cc1)NCCc1ccc(O)c(O)c1 (centres undefined) [Dobutamine hydrochloride],1.01 ± 0.031,0.976 ± 0.027
Nc1ccc(S(N)(=O)=O)cc1 [Sulfanilamide],0.9767 ± 0.008,0.975 ± 0.021
CC[C@]12CCCN3CCc4c(n(c5ccccc45)[C@@](O)(C(=O)OC)C1)[C@@H]32 [Vincamine],1.02 ± 0.068,1.05 ± 0.024
CCC(C)(C)c1ccc(CC(C)CN2C[C@@H](C)O[C@@H](C)C2)cc1 (some centres undefined) [Amorolfine hydrochloride],0.991 ± 0.05,1.06 ± 0.14
CNC1(C)C2CCC(C2)C1(C)C (centres undefined) [Mecamylamine hydrochloride],0.936 ± 0.046,0.952 ± 0.053
Cn1c(=O)c2c(ncn2CC(O)CO)n(C)c1=O (centres undefined) [Diprophylline],1.06 ± 0.098,1 ± 0.022
NC(=O)c1cccnc1 [Nicotinamide],0.975 ± 0.033,1.12 ± 0.066
CC(=C(CCO)SSCC1CCCO1)N(C=O)Cc1cnc(C)nc1N (stereo in doubt) [Fursultiamine Hydrochloride],1.03 ± 0.025,1.03 ± 0.0084
CCC(C)(CN(C)C)OC(=O)c1ccccc1 (centres undefined) [Amyleine hydrochloride],1.074 ± 0.0072,1.02 ± 0.036
C=C(NC(=O)C(=C)NC(=O)c1csc(C2=N[C@@H]3c4csc(n4)[C@H]4NC(=O)c5csc(n5)[C@H]([C@](C)(O)[C@@H](C)O)NC(=O)[C@H]5CSC(=N5)/C(=C/C)NC(=O)[C@H]([C@@H](C)O)NC(=O)c5csc(n5)[C@]3(CC2)NC(=O)[C@H](C)NC(=O)C(=C)NC(=O)[C@H](C)NC(=O)[C@H]([C@@H](C)CC)N[C@@H]2C=Cc3c([C@H](C)O)cc(nc3[C@H]2O)C(=O)O[C@@H]4C)n1)C(N)=O [Thiostrepton],0.14 ± 0.011,0.126 ± 0.0091
CC(C)(Oc1ccc(C2CC2(Cl)Cl)cc1)C(=O)O (centres undefined) [Ciprofibrate],0.973 ± 0.022,1.01 ± 0.086
C=CCN1CCCC1CNC(=O)c1cc2nn[nH]c2cc1OC (centres undefined) [Alizapride HCl],1.02 ± 0.048,1.098 ± 0.0094
CC1=C(C(=O)O)N2C(=O)[C@@H](NC(=O)[C@H](N)c3ccc(O)cc3)[C@H]2SC1 [Cefadroxil],1.07 ± 0.057,1.08 ± 0.035
CC(C)(C)NCC(O)COc1cccc2c1CC(O)C(O)C2 (centres undefined) [Nadolol],1.02 ± 0.073,1.04 ± 0.035
CC[C@H](C)C(=O)O[C@H]1C[C@H](O)C=C2C=C[C@H](C)[C@H](CC[C@@H](O)C[C@@H](O)CC(=O)O)[C@H]21 [Pravastatin],0.967 ± 0.092,0.988 ± 0.085
CC1=C(C(=O)O)N2C(=O)[C@@H](NC(=O)[C@H](N)c3ccccc3)[C@H]2SC1 [Cephalexin monohydrate],1.25 ± 0.026,1.09 ± 0.1
CCOCCn1c(N2CCCN(C)CC2)nc2ccccc21 [Emedastine],0.996 ± 0.029,1.02 ± 0.058
COc1ccc2c(c1)c(CC(=O)OCC(=O)O)c(C)n2C(=O)c1ccc(Cl)cc1 [Acemetacin],1.13 ± 0.012,1.05 ± 0.052
Cc1nccn1CC1CCc2c(c3ccccc3n2C)C1=O (centres undefined) [Ondansetron Hydrochloride],1.07 ± 0.04,1.1 ± 0.082
"O=C1C(O)=C(O)C(=O)C(O)=C1O [Tetrahydroxy-1,4-quinone monohydrate]",1.01 ± 0.026,1.01 ± 0.048

SMILES,normalised cell viability (treatment time: 3 days),normalised cell viability (treatment time: 6 days)
CC(=O)NC[C@H]1CN(c2ccc(N3CCOCC3)c(F)c2)C(=O)O1 [Linezolid],1.04 ± 0.039,0.972 ± 0.047
Clc1cc(Cl)c(OCC#CI)cc1Cl [Haloprogin],0.354 ± 0.01,0.476 ± 0.052
Nc1nc(=O)[nH]cc1F [Flucytosine],1.06 ± 0.02,0.987 ± 0.025
Nc1nnc(-c2cccc(Cl)c2Cl)c(N)n1 [Lamotrigine],1.03 ± 0.024,1.03 ± 0.073
CC[C@@]1(O)C(=O)OCc2c1cc1n(c2=O)Cc2cc3c(CN(C)C)c(O)ccc3nc2-1 [Topotecan],0.144 ± 0.0092,0.166 ± 0.023
CC(=O)O[C@]1(C(C)=O)CC[C@H]2[C@@H]3C=C(C)C4=CC(=O)CC[C@]4(C)[C@H]3CC[C@@]21C [Megestrol acetate],0.918 ± 0.083,0.91 ± 0.034
Cc1cccc(C)c1NC(=O)CN1CCN(CCCC(c2ccc(F)cc2)c2ccc(F)cc2)CC1 [Lidoflazine],0.302 ± 0.021,0.549 ± 0.07
N=C(N=C(N)N)N1CCOCC1 [Moroxidine hydrochloride],0.95 ± 0.064,1.02 ± 0.059
CC(=O)OCC(=O)[C@@]12OC3(CCCC3)O[C@@H]1C[C@H]1[C@@H]3CCC4=CC(=O)C=C[C@]4(C)[C@@]3(F)[C@@H](O)C[C@@]12C [Amcinonide],0.994 ± 0.062,0.963 ± 0.06
CC(=O)Nc1ccc(OCC(O)CNC(C)C)cc1 (centres undefined) [Practolol],1.08 ± 0.066,1.07 ± 0.042
CN1[C@@H]2CC[C@H]1C[C@@H](OC(c1ccccc1)c1ccccc1)C2 [Benztropine mesylate],0.981 ± 0.012,1.02 ± 0.04
CCCC(=O)Nc1ccc(OCC(O)CNC(C)C)c(C(C)=O)c1 (centres undefined) [Acebutolol hydrochloride],0.97061 ± 0.00064,0.9785 ± 0.0078
O=C(Nc1ccccc1)OCC(CN1CCCCC1)OC(=O)Nc1ccccc1 (centres undefined) [Diperodon hydrochloride],1.02 ± 0.019,0.929 ± 0.18
CCCCC1C(=O)N(c2ccccc2)N(c2ccccc2)C1=O [Phenylbutazone],1.07 ± 0.053,1.07 ± 0.095
CC(=O)/N=c1/sc(S(N)(=O)=O)nn1C [Methazolamide],1.02 ± 0.023,1.02 ± 0.029
N=C(N)N1CCc2ccccc2C1 [Debrisoquin sulfate],1.05 ± 0.041,1.09 ± 0.013
CCCc1nc2c(C)cc(-c3nc4ccccc4n3C)cc2n1Cc1ccc(-c2ccccc2C(=O)O)cc1 [Telmisartan],0.931 ± 0.05,0.937 ± 0.048
CCCCOC(=O)c1ccc(O)cc1 [Butylparaben],1.07 ± 0.11,1.01 ± 0.1
"O=C(O)Cc1cc(I)c(Oc2ccc(O)c(I)c2)c(I)c1 [Tiratricol, 3,3',5-triiodothyroacetic acid]",0.981 ± 0.023,1.03 ± 0.032
COCCCOc1ccnc(C[S+]([O-])c2nc3ccccc3[nH]2)c1C (centres undefined) [Rabeprazole Sodium salt],0.9318 ± 0.0092,0.938 ± 0.038
O=C(CCCCC(=O)Nc1c(I)cc(I)c(C(=O)O)c1I)Nc1c(I)cc(I)c(C(=O)O)c1I [Iodipamide],1.03 ± 0.06,0.972 ± 0.029
